In PubChem BioAssay AID463173 (ICCB-Longwood Screening Facility, Harvard Medical School, 2010) one finds survival data, which are given here for 58 molecules.

The whole screen tested about 52,000 compounds, of which about 1,700 (3.3%) were called active. Cut-off read from the data, not from the text of the source: active = survival mostly below about 52% (no sharp cut-off); inactive = mostly above about 56%. Some of the results follow.

The experiment has as its system Wild type. The experiment is described as follows: S. aureus survival, RN4220 and DeltatarO strains – OD600, teichoic acid synthesis inhibitors, primary screen (AID 463173). As to conditions: S. aureus RN4220 wild type/DeltatarO growth, OD600, 18 h, hits give low values, screened at 18.75 µg/mL (by protocol).
In the case of `CCN(c1ccccc1)c1nnc(NC(=O)Nc2ccc(Br)cc2)s1`, the survival was inactive: 85%.

On to `Cc1ccc(NC(=O)Nc2nnc(N3CCCC3)s2)cc1`, for which the survival was inactive: 85%. Next, `CCOC(=O)c1c(NC(=O)/C=C/c2ccc(C(C)C)cc2)sc2c1CCC2`: inactive: 60%; `Cc1ccc(C(=O)CC2(O)C(=O)N(Cc3ccccc3F)c3ccccc32)cc1` (stereo not drawn): inactive: 71%. Take `COc1cccc(NC(=O)CSc2nc3ccc(NC(=O)c4cccs4)cc3s2)c1`: the survival was inactive: 70%. Next, `CNS(=O)(=O)c1cn(CC(=O)N2CCN(c3ccccc3F)CC2)cc1S(=O)(=O)NC`: inactive: 73%; `CCc1ccc(OC(C)c2nc(-c3ccc(-n4cccc4)cc3)no2)cc1` (stereo not drawn): active: -4%. As for `CC(C)C(=O)Nc1ccc(N2CCN(C(=O)c3ccccc3)CC2)cc1`, the survival was inactive: 96%. Consider `CCOC(=O)C1NC(=O)CC1c1ccccc1` (stereo not drawn), for which the survival was inactive: 99%.

Regarding `CCOc1ccc(CCNc2ncnc3onc(-c4ccc(Cl)cc4)c23)cc1OCC`, the survival is inactive: 85%. Next, `COCc1nc2cccnc2n1C1CCN(S(=O)(=O)N(C)C)CC1`: inactive: 66%; `O=S(=O)(NCc1csc(-c2ccccc2)n1)c1cccc(F)c1`: inactive: 73%; `COc1ccc(NC(=O)C(c2ccc(C)cc2)N(C)C(=O)/C=C\c2ccc3c(c2)OCO3)cc1` (stereo not drawn): inactive: 78%. For `CC(C)CNC(=O)c1cc2sccc2n1Cc1ccccc1`, the survival was inactive: 133%. Next, `COc1cccc(C2=C(C(C)=O)Sc3nncn3N2C(C)=O)c1`: inactive: 66%. With `CCOC(=O)c1ccc(NC(=O)CCc2c(C)nc3c(c(C)nn3-c3ccccc3)c2C)cc1`, the survival is inactive: 87%. Next, `Cc1ccc(CN(Cc2ccco2)C(=O)COc2ccccc2C)cc1`: inactive: 83%; `O=C(Cn1c(SCc2cccc(F)c2)nc2cccnc21)Nc1ccc(F)c(Cl)c1`: inactive: 68%; `O=C(NCCO)c1ccc2c(c1)OCO2`: inactive: 100%. Next, `CC(=O)c1ccc(NC(=O)CCc2c(C)nc3c(c(C)nn3-c3ccc(C)cc3)c2C)cc1`: inactive: 82%; `COc1ccccc1NC(c1ccc(Cl)cc1)c1nnc(-c2cccc(F)c2)o1` (stereo not drawn): inactive: 62%; `CCOc1ccc(-c2nonc2NC(=O)c2oc3ccc(F)cc3c2C)cc1`: inactive: 125%. In the case of `Cc1nn2c(=O)cc(CN(C)c3ccccc3)nc2s1`, the survival was inactive: 131%. In the case of `CCOC(=O)c1ccccc1NC(=O)CSc1ncc(CO)n1Cc1ccc(C)cc1`, the survival was inactive: 90%. For `CC(C)(C)c1ccc(Cn2c(Cc3ccccc3)nc3ccccc32)cc1`, the survival is active: -1%.

With `O=C(COc1ccccc1Cl)Nc1cc(-c2ccccc2F)nn1-c1ccccc1`, the survival is inactive: 90%.

Turning to `Cc1cc(C)cc(NC(=O)CN(c2cc(C(F)(F)F)ccc2Cl)S(=O)(=O)c2ccccc2)c1`, the survival is inactive: 79%. On to `O=C(CCS(=O)(=O)c1nc(-c2cccs2)cc(C(F)(F)F)n1)Nc1ccc(OC(F)(F)F)cc1`, for which the survival was inactive: 73%. With `COc1ccc(C2c3c(oc4ccccc4c3=O)C(=O)N2Cc2ccc3c(c2)OCO3)cc1` (stereo not drawn) the figure was inactive: 80%; with `CN(C1CCCCC1)S(=O)(=O)c1ccc(S(=O)(=O)N(Cc2ccccn2)Cc2ccco2)cc1`, inactive: 106%. Consider `COC(=O)c1ccccc1NC(=O)C1=CC(c2ccc(C)cc2)=NS(=O)(=O)N1C`, for which the survival was inactive: 77%. Take `O=C1CCCN1CN1CCN(CN2CCCC2=O)CC1`: the survival was inactive: 111%.

Consider `COc1ccc(OC)c(NC(=O)c2cc3c(n(-c4ccc(Cl)cc4)c2=O)CC(C)(C)CC3=O)c1`, for which the survival was inactive: 70%.

On to `C=CCn1c(N)cc(=O)nc1SCC(=O)NC(C)c1ccccc1` (stereo not drawn), for which the survival is inactive: 108%.

Take `O=C(CN1CCN(Cc2ccc(F)cc2)C1=O)NCc1ccccc1Cl`: the survival is inactive: 75%. Next, `COc1cccc(-c2nn(C)c3sc(C(=O)NCc4cc(OC)ccc4OC)cc23)c1`: inactive: 85%.

For `Cc1cc(C)c(S(=O)(=O)Nc2ccc(-c3ccc(N4CCC(C)CC4)nn3)cc2)cc1C`, the survival is inactive: 67%. For the molecule `Cc1cccc(C)c1Nc1c(-c2ccccc2F)nc2cccc(C)n12`, the survival is active: 7%.

For `CC(C)CCNC(=O)C1CCN(Cc2ccccc2O)CC1`, the survival was inactive: 102%. Next, `C=CCNC(=O)c1cc2c(=O)n3cccc(C)c3nc2n(CCN2CCOCC2)c1=N`: inactive: 106%; `COc1ccc(OCC(=O)Nc2nnc(S(=O)(=O)N3CCc4ccccc43)s2)cc1`: inactive: 73%; `CCCCN(CC)CCNC(=O)c1c(C)oc2ncnc(N3CCOCC3)c12`: inactive: 76%. Next, `CCOc1ccc(C(=O)/C=C/c2cn(CC(O)CN3CCCCCC3)c3ccccc23)cc1` (stereo not drawn): active: 26%. With `Cc1ccccc1C(=O)Nc1cc2c(cc1N1CCOCC1)n(C)c(=O)n2C` the figure was inactive: 79%; with `CCOC(=O)c1ccccc1NC(=O)C1CCN(c2ncnc3c2nc2n3CCCCC2)CC1`, inactive: 83%; with `CCC1(C)CC(=O)c2c(ccc3oc(C(=O)NCc4ccccc4)c(C)c23)O1` (stereo not drawn), inactive: 36%. With `Cc1ccc2oc3c(c(=O)c2c1)C(c1ccc(O)cc1)N(Cc1ccc2c(c1)OCO2)C3=O` (stereo not drawn), the survival is inactive: 89%. Take `CCOc1ccc(C(=O)c2cn(CC(=O)Nc3ccc(OC)cc3)c3cc4c(cc3c2=O)OCCO4)cc1`: the survival was inactive: 88%. With `O=C(NCCC1=CCCCC1)C1CCN(C(=O)Cc2ccccc2)CC1` the figure was inactive: 114%; with `COc1ccc2[nH]c(=O)c(CN(C(=O)c3cccc(Cl)c3)c3ccccc3C)cc2c1`, inactive: 84%; with `CC1CN(c2ccc(Cl)cc2)c2nc3c(c(=O)n(CC(=O)O)c(=O)n3C)n2C1` (stereo not drawn), inactive: 73%. With `COc1ccc2occ(CC(=O)Nc3ccc(S(=O)(=O)Nc4nccc(C)n4)cc3)c2c1` the figure was inactive: 83%; with `Cc1ccc(CNC(=O)c2sc3nc[nH]c(=O)c3c2C)cc1`, inactive: 127%. Next, `Cc1cc2nnc(SCc3ccc(F)cc3)n2c2ccccc12`: active: -2%; `CC(C)CCn1c(=O)c2cccnc2n(CC(=O)Nc2ccc(F)cc2)c1=O`: inactive: 73%; `COc1cccc(-c2cc(C(=O)Nc3c(C)nn(Cc4ccccc4Cl)c3C)no2)c1`: inactive: 71%. With `CN1CCN(C2(CNC(=O)c3ccc(C(C)(C)C)cc3)CCCCC2)CC1`, the survival is inactive: 85%. With `C#CCn1c(C2CC(=O)N(c3ccc(OC)cc3)C2)nc2ccccc21` (stereo not drawn) the figure was inactive: 82%.
